Assay results from PubChem BioAssay AID686978 (National Center for Advancing Translational Sciences (NCATS), 2013).
The campaign covered roughly 420,000 compounds. About 64,000 (15%) were called active. The inconclusive results got no clear call from the source; some entries with a clear call stand among them for comparison. The call rests on the fitted dose curve; in most records, active means well fitted inhibition curve with a large enough effect; inconclusive means small, poorly fitted or top-dose-only effect; inactive means flat fitted curve, though single readings scatter. Potencies of inconclusive entries are left out as doubtful fits.

Assay: qHTS for Inhibitors of human tyrosyl-DNA phosphodiesterase 1 (TDP1): qHTS in cells in absence of CPT; further: nearly all actives have a fitted effect of over 55% in size
Settings: DT40 Tdp1-/- hTDP1 cells, no CPT, ATP luminescence, 48 h; activity change, negative = growth inhibition: at 46.2 µM (top of the series) unless noted
How it was run: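 Stably hTDP1-transfected Tdp1-null chicken DT40 cells were treated with library compounds minus camptothecin and grown for at least 48 hr at 37 °C, after which cellular ATP was quantified by luminescence.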
On the % scale 0 is the no-effect control and ±100 the full control effect; potency means the concentration at half of the fitted maximal effect; tags describe the fitted curve by direction and shape.

Structure (SMILES) | Potency | activity change, negative = growth inhibition
Cc1ccc(S(=O)(=O)N[C@H](C(=O)N2CCC(C(=O)N[C@@H](CC(=O)O)C(=O)O)CC2)C(C)C)cc1 | inactive | –
CCC(=O)c1ccc(OC(=O)C2CCN(C3=NS(=O)(=O)c4ccccc43)CC2)cc1 | inactive | –
O=C(NCc1ccccc1Cl)c1ccc(CS(=O)(=O)c2ccc(Br)cc2)o1 | active: 13 µM | –
C/C(=N\N)c1c(-c2ccccc2)c2cc(C)ccc2[nH]c1=O | inactive | –
CCOC(=O)C1CCN(C(=O)Cn2nc(CC)n3c(cc4sccc43)c2=O)CC1 | active: 18.4 µM | –
CC(C)OCCCNC(=O)Cn1ncc2c(=O)oc3ccccc3c21 | inactive | –
S=C(NCCc1ccccc1)Nc1ccccn1 | active: 18.4 µM | –
CC(C)(C)c1ccc(C2CC2C(=O)N/N=C\c2ccc[nH]2)cc1 (centres undefined) | inconclusive [inhibitor, single point] | –
CCC(=O)N1CCC1(C)C(=O)Nc1ccc2nc(C)ccc2c1 (centres undefined) | inconclusive [inhibitor, single point] | –
COc1ccc(Nc2ncnc3sc4c(c23)CCCC4)cc1 | active: 0.0291 µM | –
Cc1cc(C)c(NC(=O)Cn2c(=O)n(CCC(=O)N3CCc4ccccc4C3)c(=O)c3ccccc32)c(C)c1 | active: 0.517 µM | –
CCN(CC)S(=O)(=O)c1ccc2c(c1)N(CC(=O)N1CCN(c3cccc(C)c3C)CC1)C(=O)CO2 | active: 14.6 µM | –
C/C=C/c1ccc(OCCCCOc2ccccc2F)c(OC)c1 | inconclusive [inhibitor, single point] | –
Cc1cc(C(c2ccc(C)o2)c2ccc(C)o2)c(O)c([N+](=O)[O-])c1 | inconclusive [inhibitor, single point] | –
Cc1ccc(Cn2c3ccccc3c3cnn(CC(=O)Nc4cc(Cl)ccc4C)c(=O)c32)cc1 | inactive | –
O=C(/C=C\NCC(=O)c1ccccc1)c1ccc2ccccc2c1 | inconclusive [inhibitor, single point] | –
Cc1c(CNC2CCCCC2)c(C(=O)O)c(C)n1Cc1ccc(Cl)cc1 | inconclusive [inhibitor, partial curve, poor fit] | –
O=C(CSc1ncccn1)NN=C1CCCCCC1 | inactive | –
CCOC(=O)/C(C#N)=C1/C=CN(C)C(C)=N1 | inactive | –
O=C(c1cc2cc(Br)ccc2[nH]1)N1CCc2ccccc21 | inconclusive [inhibitor, partial curve] | –
CCC1CCCCN1C(=O)c1c[nH]c2ccc(S(=O)(=O)N(C)c3ccc(Cl)cc3)cc2c1=O (centres undefined) | inconclusive [inhibitor, partial curve] | –
CCNC(=O)CCn1nc(-c2ccc(Cl)cc2)c2ccccc2c1=O | inconclusive [inhibitor, partial curve] | –
CCC1CCCCN1C(=S)NC(=O)c1cccc([N+](=O)[O-])c1 (centres undefined) | inconclusive [inhibitor, single point] | –

Structure (SMILES) | Potency | activity change, negative = growth inhibition
COc1ccc(/C=C/C(=O)Nc2ccc(-n3nncc3-c3ccc(OC)c(OC)c3)cc2)cc1OC | inconclusive [inhibitor, single point] | –
O=Cc1cn(-c2ccccc2)nc1-c1ccc2c(c1)OCCO2 | inconclusive [inhibitor, single point] | –
Oc1c(CN2CCCC(C(F)(F)F)C2)cc(Cl)c2ccccc12 (centres undefined) | inconclusive [inhibitor, single point] | –
Cc1c(C(C)C)c(=O)n(-c2ccc(S(=O)(=O)NCc3ccccc3)cc2)n1C | active: 8.2 µM | –
Cc1ccc(-n2c(=O)c3c(n4cnnc24)-c2ccccc2CC32CCCCC2)cc1 | – | inconclusive: -37.1% [inhibitor]
Cc1ccccc1C(=O)N1CCC(C(=O)Nc2ccc(S(=O)(=O)N3C(C)CCCC3C)cc2)CC1 (centres undefined) | active: 10.3 µM | –
CNc1cncc(-c2ccc(OC)cc2OC)n1 | inactive | –
COc1ccc(OC)c(CNc2ncc(-c3cccc([N+](=O)[O-])c3)n2C)c1 | inconclusive [inhibitor, partial curve, poor fit] | –
CCCCCCCC(=O)Nc1ccc(S(=O)(=O)Nc2nccs2)cc1 | inactive | –
O=C(CSc1n[nH]c(-c2ccccc2Cl)n1)NCCc1ccccc1 | active: 20.6 µM | –
COc1ccc(N2CCN(C(=O)c3cccn3-c3nnc(N4CCCC4)s3)CC2)cc1 | inconclusive [inhibitor, single point] | –
Cc1ccc(-c2nc3c(C)cc(Br)cn3c2Cc2cccc(F)c2)cc1 | inconclusive [inhibitor, single point] | –
O=C(NC(=S)Nc1cccc(NC(=S)NC(=O)c2ccccc2)c1)c1ccccc1 | active: 10.3 µM | –
CSCC[C@H](NC(=O)[C@H](Cc1ccc(OS(=O)(=O)O)cc1)NC(=O)[C@@H](N)CC(=O)O)C(=O)NCC(=O)N[C@@H](Cc1c[nH]c2ccccc12)C(=O)N[C@@H](CCSC)C(=O)N[C@@H](CC(=O)O)C(=O)N[C@@H](Cc1ccccc1)C(N)=O | inactive | –
CCOC(=O)C1CCCN(c2nc3c(S(=O)(=O)c4ccc(CC)cc4)nnn3c3ccc(Cl)cc23)C1 (centres undefined) | inconclusive [inhibitor, single point] | –
NC(=O)CC(NC(=O)c1cccc(Br)c1)c1ccc(N2CCN(c3ccc(F)cc3)CC2)c([N+](=O)[O-])c1 (centres undefined) | active: 13 µM | –
COc1ccc(C)cc1NC(=O)Nc1nnc(N2CCCCC2)s1 | inconclusive [inhibitor, single point] | –
Cc1ccc(C=C2C(=O)c3ccccc3C2=O)o1 | inactive | –
O=S(=O)(c1ccc(F)cc1)c1nc(-c2ccco2)oc1Nc1ccc(F)cc1 | inconclusive [inhibitor, single point] | –
CC(=O)Oc1ccc(Cn2c(C)c(C(=O)NCCC#N)sc2=O)cc1 | inconclusive [inhibitor, single point] | –
C=C(C)COc1ccc(-c2[nH]ncc2-c2ccccc2)c(O)c1 | active: 20.6 µM | –
FC(F)C(F)(F)Oc1cccc(Nc2nccn3c(-c4cc(C(F)(F)F)cc(C(F)(F)F)c4)cnc23)c1 | inconclusive [inhibitor, single point] | –
Cc1ccccc1NC(=S)/C(=C(\[O-])c1ccc(C)c([N+](=O)[O-])c1)[n+]1ccccc1 | inconclusive [inhibitor, single point] | –

Structure (SMILES) | Potency | activity change, negative = growth inhibition
COc1ccc(C(CC(=O)Nc2ccccc2OC)n2cccc2)cc1 (centres undefined) | active: 10.3 µM | –
Cc1ccc(SCc2nc(-c3ccc(C(=O)NCc4ccc(Cl)cc4)cc3)oc2C)cc1 | active: 9.2 µM | –
CCSc1nnc(NC(=O)c2csc(C)c2)s1 | inactive | –
Cc1ccn2c(=O)cc(CSc3nnc(NC(=O)c4ccccc4Cl)s3)nc2c1 | inconclusive [inhibitor, partial curve] | –
COc1cc(NC(=O)c2noc3c2CSc2ccccc2-3)cc(OC)c1OC | active: 8.2 µM | –
O=C(NC1CCCCC1)c1cc(Nc2cccc(C(F)(F)F)c2)nc2ccccc12 | inconclusive [inhibitor, partial curve] | –
CCN(Cc1ccccc1)C(=O)c1nc(-c2cccc(F)c2)n2c1CCCCC2 | inconclusive [inhibitor, single point] | –
CC(C)C(=O)Nc1ccc2c(c1)C(=O)N(CCC(=O)O)C2=O | active: 29.1 µM | –
O=C(NC(=S)Nc1cc(-c2nc3ccccc3[nH]2)ccc1Cl)c1ccc2c(c1)OCO2 | active: 3.66 µM | –
FC(F)Sc1ccc(NC(=S)NC2CCC(NC(=S)Nc3ccc(SC(F)F)cc3)CC2)cc1 (centres undefined) | inconclusive [inhibitor, partial curve] | –
Cc1cc(C)c(CSc2nnc(C)n3c2cc2occc23)c(C)c1 | active: 20.6 µM | –
Cc1cnc(C(=O)N2CCN(S(=O)(=O)c3cc(C(F)(F)F)cc(C(F)(F)F)c3)CC2)cn1 | inconclusive [inhibitor, single point] | –
O=C1NC[C@@H](c2ccccc2)OC(=O)[C@H](Cc2ccc(F)cc2)C/C=C\C[C@@H]1CC(=O)N(CCO)Cc1ccccc1 | active: 23.1 µM | –
COc1ccccc1CN=Cc1[nH]c2ccc(Br)c(Cl)c2c1O | inconclusive [inhibitor, single point] | –
O=C(NCCN1CCOCC1)c1ccc2c(c1)N(Cc1cccc(Cl)c1)C(=O)c1ccccc1S2(=O)=O | inconclusive [inhibitor, single point] | –
C[C@H](NC(=O)c1nc[nH]c1C(=O)N[C@H](C)c1ccccc1)C(=O)OC(C)(C)C | inconclusive [inhibitor, single point] | –
NC(Cc1ccc(C(F)(F)F)cc1)c1csc(Nc2ccc(S(N)(=O)=O)cc2)n1 (centres undefined) | active: 20.6 µM | –
Cc1ccc(CSCCNC(=O)CN(c2cccc([N+](=O)[O-])c2)S(C)(=O)=O)cc1 | inconclusive [inhibitor, partial curve, poor fit] | –
Cc1cccc(N2CCN(C(=O)NCc3noc4ccccc34)CC2)c1C | inconclusive [inhibitor, single point] | –
Cc1ccc(C(=O)N(C)c2nnc(-c3ccncc3)s2)cc1 | inactive | –
CCOC(=O)c1ccccc1NC(=O)CCOc1ccccc1 | inactive | –
O=c1[nH][nH]c2c1[C@H](c1ccc(Cl)cc1)O[C@H](CCc1ccccc1)C2 | inconclusive [inhibitor, single point] | –
COc1ccc(CN2C[C@@H](CO)O[C@@H](n3cnc4c(N5CCCC5)ncnc43)C2)cc1 | – | inconclusive: -30.7% [inhibitor]
